Among all 420,000 compounds or so, about 64,000 (15%) were called active. The shares of active, inactive and inconclusive entries below differ from those in the screen. Calls come from the whole dose curve; as a rule, active = well fitted inhibition curve with a large enough effect; inconclusive = small, poorly fitted or top-dose-only effect; inactive = flat fitted curve, though single readings scatter. No potency is given beside an inconclusive call; the fits are too rough.
Assay: qHTS for Inhibitors of human tyrosyl-DNA phosphodiesterase 1 (TDP1): qHTS in cells in absence of CPT; note: nearly all actives have a fitted effect of over 55% in size
Settings: DT40 Tdp1-/- hTDP1 cells, no CPT, ATP luminescence, 48 h; activity change, negative = growth inhibition: at 46.2 µM (top of the series) unless noted
Outline: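 Compound effects on proliferation are scored in DT40 Tdp1-/-;hTDP1 cells in the absence of CPT. ATP levels (CellTiter-Glo luminescence) are recorded after a ≥48 hr, 37 °C incubation.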
% is set by controls: 0 for no effect and ±100 for the full control effect; potency is the fitted concentration of half-maximal effect; tags give direction and shape of the fitted curve.

| Compound | activity change, negative = growth inhibition | Potency |
| --- | --- | --- |
| Cc1ccc(C(C)(O)CS(=O)(=O)Cc2ccccc2)cc1 (stereo not drawn) | inactive: -10.8% | – |
| COCC(O)Cn1ccnc1[N+](=O)[O-] (stereo not drawn) | – | inconclusive [inhibitor, full curve, poor fit] |
| COc1ccc(-c2noc(CCC(=O)N3CCN(c4cccc(Cl)c4)CC3)n2)cc1 | – | active: 23.1 µM |
| COc1ccc(CNS(=O)(=O)c2ccc(C)cc2)cc1 | – | inconclusive [inhibitor, single point] |
| CC(CC(=O)Nc1ccc(Cl)c(S(=O)(=O)N2CCOCC2)c1)c1ccccc1 (stereo not drawn) | – | inconclusive [inhibitor, partial curve, poor fit] |
| COc1ccccc1CNc1ccnc(-c2ccccc2CN(C)C)n1 | – | inconclusive [inhibitor, single point] |
| Cn1c(SCC(=O)NNC(=O)Nc2ccc(Cl)cc2)nnc1-c1ccccc1 | inactive: -3.59% | – |
| CCOc1ccccc1Cn1c(=O)oc2ccc(C)cc21 | – | inconclusive [inhibitor, partial curve, poor fit] |
| COc1c(/C=N/Nc2nc(N3CCCCC3)nc(N3CCCCC3)n2)cccc1[N+](=O)[O-] | – | inconclusive [inhibitor, single point] |
| O=C(NCc1ccc2c(c1)OCO2)OCc1ccccc1 | inactive: -19% | – |
| Cc1ccc2oc(=O)c3cnn(CC(=O)NCCCOC(C)C)c3c2c1 | – | inconclusive [inhibitor, single point] |
| Cc1ccc(NC(=O)c2cc(-c3cccs3)on2)cc1 | – | inconclusive [inhibitor, partial curve] |
| OC1CCN(c2cc(-c3ccccc3)nc3cc(-c4ccc(F)cc4)nn23)CC1 | – | inconclusive [inhibitor, partial curve] |
| CCN(CC)CCN1c2ccccc2Sc2ccccc21 | – | inconclusive [inhibitor, single point] |
| Cc1ccc(OCC(=O)Nc2ccc(-c3nc4ccccc4o3)cc2)c(C)c1 | inactive: -14.5% | – |
| C[C@@H]1CN([C@@H](C)CO)S(=O)(=O)c2ccc(Br)cc2O[C@H]1CN(C)C(=O)c1ccc2c(c1)OCO2 | – | active: 23.1 µM |
| CCOC(=O)c1c(C)[nH]c(CCC(=O)Nc2cc(C)cc(C)c2)c1C | – | active: 23.1 µM |
| CCOC(=O)CC1C(=O)NCCN1c1nc2ccc(C)cn2c(=O)c1/C=C1\SC(=S)N(CC(C)C)C1=O (stereo not drawn) | – | inconclusive [inhibitor, single point] |
| CSc1ccccc1NC(=O)CN(C)C(C)C(=O)Nc1ccc(C#N)cc1 (stereo not drawn) | – | inconclusive [inhibitor, partial curve] |
| O=C(Cn1ccc2ccccc2c1=O)NCCC(=O)N1CCN(c2cccc(C(F)(F)F)c2)CC1 | – | active: 16.4 µM |
| O=C(NC(c1ccccc1)c1ccsc1)C1CCN(Cc2ccc(Cl)c(Cl)c2)CC1 (stereo not drawn) | – | inconclusive [inhibitor, single point] |
| O=C(c1sc2cccc(Cl)c2c1Cl)N1CCN(CCc2ccccn2)CC1 | – | inconclusive [inhibitor, single point] |
| COc1ccc(C(=O)N2CCC3(CCCN(c4ccncc4)C3)CC2)cc1 | – | active: 18.4 µM |

| Compound | activity change, negative = growth inhibition | Potency |
| --- | --- | --- |
| COc1cc(C(=O)NC(c2ccccc2)c2ccccc2)cc(OC)c1C | – | inconclusive [inhibitor, single point] |
| O=C(CCNc1ccc(Cc2ccncc2)cc1)c1ccc([N+](=O)[O-])cc1 | – | inconclusive [inhibitor, single point] |
| CCC(=O)c1ccccc1OCCCN1C(=O)NC(C)(C)C1=O | inactive: -1.06% | – |
| O=C(O)c1ccccc1C(=O)c1ccc(N2CCCC2)c([N+](=O)[O-])c1 | inactive: 14.7% | – |
| Cc1cc(C)c(C(=O)OCCNC(=O)c2cccnc2)cc1C | inconclusive: -37% [inhibitor] | – |
| Cc1cc(C)c(S(=O)(=O)N(C)CC(=O)NCc2ccncc2)c(C)c1 | inactive: -23.7% | – |
| CN(Cc1cn(-c2ccccc2)nc1-c1cc2ccccc2o1)C(=O)CCC(=O)O | – | inconclusive [inhibitor, partial curve] |
| CCNC(=O)C1Cc2cc(S(=O)(=O)N3CCCC3)ccc2N1C(C)=O (stereo not drawn) | inactive: 10.3% | – |
| CC(NS(=O)(=O)c1ccc(Cl)cc1)C(=O)NCCC1=CCCCC1 (stereo not drawn) | – | inconclusive [inhibitor, single point] |
| COc1ccc(NC(=S)Nc2ccc(N(C)C(C)=O)cc2)cc1 | – | inconclusive [inhibitor, single point] |
| O=C(Cc1ccc(-c2ccccc2)cc1)NNC(=S)NCc1ccco1 | – | active: 16.4 µM |
| COc1ccc(C2=NN(C(=O)c3cccs3)C(c3ccccc3OC)C2)cc1OC (stereo not drawn) | – | inconclusive [inhibitor, single point] |
| CC(CN1CCOCC1)c1ccccc1 (stereo not drawn) | inactive: 2.15% | – |
| O=C(NC(=S)NCC1CCCO1)c1ccc(Cl)cc1 (stereo not drawn) | – | inconclusive [inhibitor, single point] |
| O=C(CN1CCN(c2ccc(O)cc2)CC1)NC(c1ccccc1)c1ccccc1 | – | inconclusive [inhibitor, single point] |
| Cc1ccc(NS(=O)(=O)c2ccc(C(=O)N3CCCCCCC3)cc2)cc1 | – | inconclusive [inhibitor, single point] |
| C[C@@H](C(=O)NCc1ccccc1)[C@H]1C[C@]1(C)[C@H](NC(=O)OCc1ccccc1)c1ccccc1 | – | inconclusive [inhibitor, single point] |
| COc1cnn(-c2ccccc2)c(=O)c1SCc1ccc(Cl)c(Cl)c1 | – | inconclusive [inhibitor, partial curve] |
| Cc1ccc(NC(=O)CSc2nc(C)cc(C)c2C(=O)Nc2cccc(C)c2)cc1 | – | inconclusive [inhibitor, single point] |
| COc1ccc(NC(=O)Cn2ncc3c([nH]c4ccccc43)c2=O)cc1Cl | – | inconclusive [inhibitor, single point] |
| CCc1ccc(CN(C)CC(=O)Nc2ccccc2[N+](=O)[O-])cc1 | – | inconclusive [inhibitor, single point] |
| COC(=O)c1c(C)c2c(C)cc3ccccn3c-2c1C(=O)OC | – | active: 29.1 µM |
| O=C(NCCc1ccccc1)c1ccc(CSc2nc3ccncc3n2Cc2ccccc2)cc1 | – | inconclusive [inhibitor, single point] |

| Compound | activity change, negative = growth inhibition | Potency |
| --- | --- | --- |
| CC(=O)c1ccc(NC(=O)C2CCCN(S(=O)(=O)c3c(C)[nH]c(=O)[nH]c3=O)C2)cc1 (stereo not drawn) | inactive: 10.3% | – |
| CCN1CCN(C(=O)C(C)Oc2ccc(S(=O)(=O)N3CCCC3)cc2C(N)=O)CC1 (stereo not drawn) | inactive: -0.0528% | – |
| COCCN1CC(C(=O)NCc2ccccc2-n2ccnc2C)CCC1=O (stereo not drawn) | inactive: -5.76% | – |
| CCN(CC)S(=O)(=O)c1cccc(C(=O)N/N=C/c2cc(OC)c(O)c(OC)c2)c1 | – | inconclusive [inhibitor, partial curve, poor fit] |
| CC1Sc2ccc(S(=O)(=O)N3CCC(C(=O)NCc4ccccc4)CC3)cc2NC1=O (stereo not drawn) | – | inconclusive [inhibitor, partial curve] |
| CCOc1ccc(N(CC(=O)Nc2ccc(C)c(Cl)c2)S(C)(=O)=O)cc1 | – | inconclusive [inhibitor, single point] |
| Cn1c(CNc2nc(-c3ccccc3)cs2)nnc1SCC(=O)c1ccccc1 | – | inconclusive [inhibitor, single point] |
| O=C(NCC(=O)N1CCN(c2ccccc2)CC1)c1ccco1 | inconclusive: 8.02% [inhibitor] | – |
| COc1ccc(Br)cc1CNC(=O)CN1C(=O)CSc2ccc(S(=O)(=O)N3CCOCC3)cc21 | – | inconclusive [inhibitor, single point] |
| Cc1nc(-c2ccccc2)nn1-c1ccc([N+](=O)[O-])cc1 | – | inconclusive [inhibitor, single point] |
| COc1ccc(OC)c(C2NC(=O)N(C)C(C)=C2C(=O)OCc2ccccc2)c1 (stereo not drawn) | – | inconclusive [inhibitor, single point] |
| CC(C)(C)c1ccc(C(=O)N2CCC2(C)C(=O)NCc2ccc3c(c2)OCO3)cc1 (stereo not drawn) | – | active: 9.2 µM |
| O=C(NC(CC(=O)N1CCN(c2ccccc2)CC1)c1ccccc1)c1ccccc1Cl (stereo not drawn) | – | inconclusive [inhibitor, single point] |
| Cc1cccc(C(=O)Nc2cccc(C(=O)OCc3cc(=O)n4ccsc4n3)c2)c1 | inactive: -16.6% | – |
| CCNC(=O)C1CCCN(C(=O)Cc2cccs2)CC1 (stereo not drawn) | inactive: -1.76% | – |
| O=C(CO/N=C\c1ccccc1)Nc1ccccc1C(=O)N1CCOCC1 | – | inconclusive [inhibitor, single point] |
| O=C(NCCOC(=O)Nc1cccc2ccccc12)OCc1ccccc1 | inactive: 16.5% | – |
| CCCCN(C(=O)CCC(=O)Nc1cc(C)on1)C(C(=O)NC1CCCC1)c1ccc(OCC)cc1 (stereo not drawn) | – | active: 16.4 µM |
| CC(C)(C)NC(=O)NC(=O)CN1CCN(C(c2ccccc2)c2ccccc2)CC1 | – | inconclusive [inhibitor, partial curve] |
| N#Cc1nc(COc2ccc(F)cc2)oc1NCCCn1ccnc1 | – | inconclusive [inhibitor, partial curve, poor fit] |
| COc1ccc(OC(C)C(=O)NCc2nc(-c3ccc(Cl)cc3)no2)cc1 (stereo not drawn) | – | inconclusive [inhibitor, partial curve] |
| COc1ccc(-c2csc3nc(C(C)(C)C)oc(=O)c23)cc1OC | – | inconclusive [inhibitor, single point] |

— PubChem BioAssay AID686978 (National Center for Advancing Translational Sciences (NCATS), 2013)
